The text below walks through data of paper PMC5896957.

Chains of the proteins cited; added tags and fusions are not shown.
UniProt P38919: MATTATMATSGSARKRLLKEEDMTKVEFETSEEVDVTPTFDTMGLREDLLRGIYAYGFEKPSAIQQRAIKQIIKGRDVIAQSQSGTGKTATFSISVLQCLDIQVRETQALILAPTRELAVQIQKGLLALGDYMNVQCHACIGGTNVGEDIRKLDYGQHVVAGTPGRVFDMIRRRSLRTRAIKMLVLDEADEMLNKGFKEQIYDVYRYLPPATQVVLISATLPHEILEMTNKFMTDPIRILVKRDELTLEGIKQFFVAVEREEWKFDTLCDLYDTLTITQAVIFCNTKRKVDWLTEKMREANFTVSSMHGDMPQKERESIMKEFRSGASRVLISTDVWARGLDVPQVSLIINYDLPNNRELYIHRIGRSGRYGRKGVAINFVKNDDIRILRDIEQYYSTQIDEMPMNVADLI
UniProt Q9Y2F5: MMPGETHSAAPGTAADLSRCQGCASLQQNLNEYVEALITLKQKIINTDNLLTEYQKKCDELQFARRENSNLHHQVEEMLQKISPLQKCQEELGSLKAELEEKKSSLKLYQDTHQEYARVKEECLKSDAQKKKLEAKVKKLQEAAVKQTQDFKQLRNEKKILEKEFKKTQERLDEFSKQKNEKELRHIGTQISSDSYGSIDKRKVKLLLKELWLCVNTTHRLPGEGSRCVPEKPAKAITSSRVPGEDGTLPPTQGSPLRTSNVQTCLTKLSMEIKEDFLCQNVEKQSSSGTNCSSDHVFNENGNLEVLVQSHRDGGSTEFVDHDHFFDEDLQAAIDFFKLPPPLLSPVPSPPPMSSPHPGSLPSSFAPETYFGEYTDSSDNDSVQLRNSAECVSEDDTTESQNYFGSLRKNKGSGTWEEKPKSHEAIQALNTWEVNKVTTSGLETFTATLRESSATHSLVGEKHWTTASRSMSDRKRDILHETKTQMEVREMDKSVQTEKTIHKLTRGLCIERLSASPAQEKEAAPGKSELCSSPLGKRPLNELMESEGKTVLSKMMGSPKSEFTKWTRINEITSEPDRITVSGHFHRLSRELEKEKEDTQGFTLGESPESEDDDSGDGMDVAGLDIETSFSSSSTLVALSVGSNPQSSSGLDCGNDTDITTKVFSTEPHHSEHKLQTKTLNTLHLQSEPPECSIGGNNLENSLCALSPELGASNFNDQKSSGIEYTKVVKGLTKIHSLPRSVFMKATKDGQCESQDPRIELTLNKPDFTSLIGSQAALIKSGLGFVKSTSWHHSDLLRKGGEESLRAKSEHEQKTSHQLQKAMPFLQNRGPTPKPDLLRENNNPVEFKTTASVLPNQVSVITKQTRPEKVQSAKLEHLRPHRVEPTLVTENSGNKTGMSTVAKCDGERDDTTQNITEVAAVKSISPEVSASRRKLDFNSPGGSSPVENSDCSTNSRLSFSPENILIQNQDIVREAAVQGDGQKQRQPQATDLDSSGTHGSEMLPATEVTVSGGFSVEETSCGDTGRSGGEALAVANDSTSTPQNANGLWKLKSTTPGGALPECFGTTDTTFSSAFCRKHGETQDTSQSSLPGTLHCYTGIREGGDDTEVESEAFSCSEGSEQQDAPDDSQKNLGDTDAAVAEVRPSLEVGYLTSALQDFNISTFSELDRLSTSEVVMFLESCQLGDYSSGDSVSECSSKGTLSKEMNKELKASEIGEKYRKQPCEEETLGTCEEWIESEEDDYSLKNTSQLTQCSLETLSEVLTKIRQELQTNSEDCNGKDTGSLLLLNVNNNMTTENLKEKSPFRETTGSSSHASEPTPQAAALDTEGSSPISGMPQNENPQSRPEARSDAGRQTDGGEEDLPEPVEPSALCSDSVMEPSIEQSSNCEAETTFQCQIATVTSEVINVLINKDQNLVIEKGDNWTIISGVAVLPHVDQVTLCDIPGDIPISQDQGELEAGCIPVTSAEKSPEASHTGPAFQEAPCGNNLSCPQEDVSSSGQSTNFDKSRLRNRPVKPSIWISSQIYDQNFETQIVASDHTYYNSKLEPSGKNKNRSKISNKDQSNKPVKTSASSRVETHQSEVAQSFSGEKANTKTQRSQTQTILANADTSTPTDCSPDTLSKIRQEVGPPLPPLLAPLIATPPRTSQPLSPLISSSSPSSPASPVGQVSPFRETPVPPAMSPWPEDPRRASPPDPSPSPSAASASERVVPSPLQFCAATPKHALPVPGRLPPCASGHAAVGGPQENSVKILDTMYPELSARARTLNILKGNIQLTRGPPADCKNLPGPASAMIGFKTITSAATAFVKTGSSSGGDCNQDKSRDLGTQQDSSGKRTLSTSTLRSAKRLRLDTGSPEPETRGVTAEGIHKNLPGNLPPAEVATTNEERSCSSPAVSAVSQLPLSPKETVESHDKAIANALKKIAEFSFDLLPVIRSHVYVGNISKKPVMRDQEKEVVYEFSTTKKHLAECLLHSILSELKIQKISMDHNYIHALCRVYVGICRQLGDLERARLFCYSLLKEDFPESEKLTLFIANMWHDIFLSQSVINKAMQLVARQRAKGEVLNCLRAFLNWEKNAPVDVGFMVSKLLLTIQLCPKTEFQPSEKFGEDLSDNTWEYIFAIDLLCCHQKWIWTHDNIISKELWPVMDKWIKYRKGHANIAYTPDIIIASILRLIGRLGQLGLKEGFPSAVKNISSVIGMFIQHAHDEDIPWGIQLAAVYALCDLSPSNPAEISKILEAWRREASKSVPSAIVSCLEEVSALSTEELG
UniProt O15234: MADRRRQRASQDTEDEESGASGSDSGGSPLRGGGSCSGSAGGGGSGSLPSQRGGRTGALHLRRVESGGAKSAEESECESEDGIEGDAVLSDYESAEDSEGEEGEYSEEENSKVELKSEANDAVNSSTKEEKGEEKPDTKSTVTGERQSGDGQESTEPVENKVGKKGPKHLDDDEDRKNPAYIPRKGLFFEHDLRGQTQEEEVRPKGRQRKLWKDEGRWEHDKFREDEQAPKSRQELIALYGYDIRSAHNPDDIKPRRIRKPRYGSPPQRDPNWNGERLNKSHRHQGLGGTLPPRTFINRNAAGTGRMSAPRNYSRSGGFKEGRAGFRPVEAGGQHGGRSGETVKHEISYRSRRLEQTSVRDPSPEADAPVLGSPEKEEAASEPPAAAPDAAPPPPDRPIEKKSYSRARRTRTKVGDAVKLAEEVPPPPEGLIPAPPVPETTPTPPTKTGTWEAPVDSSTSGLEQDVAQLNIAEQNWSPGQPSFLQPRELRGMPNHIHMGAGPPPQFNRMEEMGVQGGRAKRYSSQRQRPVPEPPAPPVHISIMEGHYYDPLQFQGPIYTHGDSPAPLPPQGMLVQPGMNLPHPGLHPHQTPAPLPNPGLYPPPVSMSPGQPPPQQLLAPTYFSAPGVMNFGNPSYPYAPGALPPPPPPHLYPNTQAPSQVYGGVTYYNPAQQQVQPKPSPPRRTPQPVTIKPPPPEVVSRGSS
UniProt P61326: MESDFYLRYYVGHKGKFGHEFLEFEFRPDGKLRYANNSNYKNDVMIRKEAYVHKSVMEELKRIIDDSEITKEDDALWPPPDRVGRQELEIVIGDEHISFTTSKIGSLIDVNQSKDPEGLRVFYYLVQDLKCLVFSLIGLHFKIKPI
UniProt Q9HAU5: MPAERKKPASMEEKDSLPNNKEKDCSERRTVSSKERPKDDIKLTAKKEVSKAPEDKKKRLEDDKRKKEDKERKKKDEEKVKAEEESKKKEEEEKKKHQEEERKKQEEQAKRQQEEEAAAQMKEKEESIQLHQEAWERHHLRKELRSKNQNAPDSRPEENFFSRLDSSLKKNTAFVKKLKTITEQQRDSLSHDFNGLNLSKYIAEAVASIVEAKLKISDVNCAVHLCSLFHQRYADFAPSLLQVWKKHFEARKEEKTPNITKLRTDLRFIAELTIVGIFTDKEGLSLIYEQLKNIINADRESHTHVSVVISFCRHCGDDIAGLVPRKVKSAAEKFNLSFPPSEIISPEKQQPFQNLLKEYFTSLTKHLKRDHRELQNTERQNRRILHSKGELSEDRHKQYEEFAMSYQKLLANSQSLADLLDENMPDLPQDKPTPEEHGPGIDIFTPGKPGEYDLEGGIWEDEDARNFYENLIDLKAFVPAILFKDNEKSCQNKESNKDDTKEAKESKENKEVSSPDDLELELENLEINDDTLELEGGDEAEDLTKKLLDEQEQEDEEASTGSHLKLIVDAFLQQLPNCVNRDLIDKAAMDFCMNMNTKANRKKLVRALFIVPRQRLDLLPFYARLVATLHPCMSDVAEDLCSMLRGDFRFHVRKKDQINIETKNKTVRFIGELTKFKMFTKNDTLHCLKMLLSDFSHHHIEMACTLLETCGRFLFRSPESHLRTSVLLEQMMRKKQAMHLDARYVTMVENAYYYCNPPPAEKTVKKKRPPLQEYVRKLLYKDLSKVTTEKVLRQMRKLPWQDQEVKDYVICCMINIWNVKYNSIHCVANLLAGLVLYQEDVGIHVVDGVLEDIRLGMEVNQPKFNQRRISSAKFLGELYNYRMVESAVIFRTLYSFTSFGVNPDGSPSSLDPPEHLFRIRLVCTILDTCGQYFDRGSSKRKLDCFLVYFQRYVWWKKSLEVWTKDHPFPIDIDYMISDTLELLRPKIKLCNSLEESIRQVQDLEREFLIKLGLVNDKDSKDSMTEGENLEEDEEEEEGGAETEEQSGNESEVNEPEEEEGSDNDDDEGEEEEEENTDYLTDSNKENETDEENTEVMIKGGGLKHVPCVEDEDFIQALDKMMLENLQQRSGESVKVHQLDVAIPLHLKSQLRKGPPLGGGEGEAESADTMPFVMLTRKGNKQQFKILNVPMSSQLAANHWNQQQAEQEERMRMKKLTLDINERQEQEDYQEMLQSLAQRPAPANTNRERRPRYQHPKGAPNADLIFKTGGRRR

Where two headings read alike, the source gives them in different places. These are yes or no findings as the source states them, for the method shown. Binding seen in cells or lysates may run through a third protein. Some binding calls cover weakened binding; strength is not graded here.

The target in assay [1] is eIF4AIII (human (endogenous in HEK-293)) (UniProt P38919). Kind of assay: co-IP; endogenous proteins; HEK-293 whole cell lysates (hypotonic freeze/thaw lysis, 150 mM NaCl); IP with antibodies against ICE1, UPF3B, eIF4AIII (monoclonal) or control IgG; no RNase; immunoblot. A general note: A western blot detects proteins with antibodies after separation by electrophoresis.
Assay [2] deals with ICE1 (interactor of little elongation complex ELL subunit 1) (human (endogenous in HEK-293)) (UniProt Q9Y2F5). The assay is described as above.
Assay [3] deals with 3XFLAG-tagged full-length ICE1 (human) (UniProt Q9Y2F5). In words: co-IP; anti-FLAG IP from HEK-293 lysates transiently overexpressing 3XFLAG-tagged ICE1 constructs; endogenous preys; immunoblot.
For assay [4], the target named is T1, UPF3B (human (endogenous in HEK-293)) (UniProt Q9BZI7).
T1 sequence: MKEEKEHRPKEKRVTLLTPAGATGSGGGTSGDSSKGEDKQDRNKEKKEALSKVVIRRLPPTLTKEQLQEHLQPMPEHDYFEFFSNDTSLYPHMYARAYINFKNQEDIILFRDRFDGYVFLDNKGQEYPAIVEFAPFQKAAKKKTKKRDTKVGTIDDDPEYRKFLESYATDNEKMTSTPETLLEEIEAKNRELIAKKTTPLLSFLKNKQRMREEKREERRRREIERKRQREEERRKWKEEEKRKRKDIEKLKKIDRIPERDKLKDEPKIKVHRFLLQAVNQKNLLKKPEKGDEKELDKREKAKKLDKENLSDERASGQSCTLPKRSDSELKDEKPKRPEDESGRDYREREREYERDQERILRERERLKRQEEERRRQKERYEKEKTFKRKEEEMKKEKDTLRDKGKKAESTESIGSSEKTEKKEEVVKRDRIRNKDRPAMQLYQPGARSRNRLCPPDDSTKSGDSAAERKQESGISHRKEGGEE
Kind of assay: co-IP; endogenous proteins; HEK-293 whole cell lysates (hypotonic freeze/thaw lysis, 150 mM NaCl); IP with antibodies against ICE1, UPF3B, eIF4AIII (monoclonal) or control IgG; no RNase; immunoblot.

Assay [5] deals with T1, UPF3B (human (endogenous in HEK-293)). Kind of assay: co-IP; anti-UPF3B IP from HEK-293 lysates transiently overexpressing 3Xmyc-ICE1 MIF4G (a.a. 1921–2266); immunoblot.
In assay [6] the target is CASC3 (human (endogenous in HEK-293)) (UniProt O15234). In words: co-IP; IP with CASC3 antibody or IgG from HEK-293 lysates of cells treated with non-targeting (siNT) or ICE1 (siICE1) siRNA; endogenous proteins; immunoblot.
Assay [7] concerns the target ICE1 (interactor of little elongation complex ELL subunit 1) (human (endogenous in HEK-293)) (UniProt Q9Y2F5). In words: co-IP; endogenous proteins; HEK-293 whole cell lysates (hypotonic freeze/thaw lysis, 150 mM NaCl); IP with antibodies against ICE1, UPF3B, eIF4AIII (monoclonal) or control IgG; no RNase; immunoblot. The source holds these as a separate data set.
Assay [8] addresses T1, UPF3B (human (endogenous in HEK-293)). The description is as above. This is another data set of the same source.

For CASC3 (from UniProt O15234 1-703), the binding result in assay [1], in assay [2] and in assay [3] was “binds” in each case.

For the molecule “ICE1 (interactor of little elongation complex ELL subunit 1) (from UniProt Q9Y2F5 1-2266)”, in assay [4], the binding result is reported as “no binding”.

Turning to MAGOH (from UniProt P61326 1-146), the binding result in assay [2] is “binds”.

UPF2 (from UniProt Q9HAU5 1-1272): the binding result is “no binding” in assay [2], “binds” in assay [4] and “binds” in assay [5].

For the molecule eIF4AIII (from UniProt P38919 1-411), in assay [6], the binding entry is “binds”.

B1: UPF3B (protein, UniProt Q9BZI7 1-483)
chain: MKEEKEHRPKEKRVTLLTPAGATGSGGGTSGDSSKGEDKQDRNKEKKEALSKVVIRRLPPTLTKEQLQEHLQPMPEHDYFEFFSNDTSLYPHMYARAYINFKNQEDIILFRDRFDGYVFLDNKGQEYPAIVEFAPFQKAAKKKTKKRDTKVGTIDDDPEYRKFLESYATDNEKMTSTPETLLEEIEAKNRELIAKKTTPLLSFLKNKQRMREEKREERRRREIERKRQREEERRKWKEEEKRKRKDIEKLKKIDRIPERDKLKDEPKIKVHRFLLQAVNQKNLLKKPEKGDEKELDKREKAKKLDKENLSDERASGQSCTLPKRSDSELKDEKPKRPEDESGRDYREREREYERDQERILRERERLKRQEEERRRQKERYEKEKTFKRKEEEMKKEKDTLRDKGKKAESTESIGSSEKTEKKEEVVKRDRIRNKDRPAMQLYQPGARSRNRLCPPDDSTKSGDSAAERKQESGISHRKEGGEE
In the case of B1, the binding result in assay [7] is on record as “no binding”.

B2: UPF1 (protein, UniProt Q92900 1-1129)
chain: MSVEAYGPSSQTLTFLDTEEAELLGADTQGSEFEFTDFTLPSQTQTPPGGPGGPGGGGAGGPGGAGAGAAAGQLDAQVGPEGILQNGAVDDSVAKTSQLLAELNFEEDEEDTYYTKDLPIHACSYCGIHDPACVVYCNTSKKWFCNGRGNTSGSHIVNHLVRAKCKEVTLHKDGPLGETVLECYNCGCRNVFLLGFIPAKADSVVVLLCRQPCASQSSLKDINWDSSQWQPLIQDRCFLSWLVKIPSEQEQLRARQITAQQINKLEELWKENPSATLEDLEKPGVDEEPQHVLLRYEDAYQYQNIFGPLVKLEADYDKKLKESQTQDNITVRWDLGLNKKRIAYFTLPKTDSGNEDLVIIWLRDMRLMQGDEICLRYKGDLAPLWKGIGHVIKVPDNYGDEIAIELRSSVGAPVEVTHNFQVDFVWKSTSFDRMQSALKTFAVDETSVSGYIYHKLLGHEVEDVIIKCQLPKRFTAQGLPDLNHSQVYAVKTVLQRPLSLIQGPPGTGKTVTSATIVYHLARQGNGPVLVCAPSNIAVDQLTEKIHQTGLKVVRLCAKSREAIDSPVSFLALHNQIRNMDSMPELQKLQQLKDETGELSSADEKRYRALKRTAERELLMNADVICCTCVGAGDPRLAKMQFRSILIDESTQATEPECMVPVVLGAKQLILVGDHCQLGPVVMCKKAAKAGLSQSLFERLVVLGIRPIRLQVQYRMHPALSAFPSNIFYEGSLQNGVTAADRVKKGFDFQWPQPDKPMFFYVTQGQEEIASSGTSYLNRTEAANVEKITTKLLKAGAKPDQIGIITPYEGQRSYLVQYMQFSGSLHTKLYQEVEIASVDAFQGREKDFIILSCVRANEHQGIGFLNDPRRLNVALTRARYGVIIVGNPKALSKQPLWNHLLNYYKEQKVLVEGPLNNLRESLMQFSKPRKLVNTINPGARFMTTAMYDAREAIIPGSVYDRSSQGRPSSMYFQTHDQIGMISAGPSHVAAMNIPIPFNLVMPPMPPPGYFGQANGPAAGRGTPKGKTGRGGRQKNRFGLPGPSQTNLPNSQASQDVASQPFSQGALTQGYISMSQPSQMSQPGLSQPELSQDSYLGDEFKSQIDVALSQDSTYQGERAYQHGGVTGLSQY
Turning to B2, the binding entry in assay [7] is listed as “no binding”; in assay [8], “binds”.
